Test results: PubChem BioAssay AID652104 (National Center for Advancing Translational Sciences (NCATS), 2013)
The campaign covered roughly 410,000 compounds. About 7,200 (1.8%) were called active. Inconclusive results, whose numbers are uncertain, are shown with a selection of clear calls. The call rests on the fitted dose curve; in most records, active means well fitted activation curve with a large enough effect; inconclusive means small, poorly fitted or top-dose-only effect, or another doubt; inactive means no such curve, though single readings can be large or run the other way. No potency is given beside an inconclusive call; the fits are too rough.

Assay: qHTS of TDP-43 Inhibitors; further: nearly all actives have a fitted effect of over 50% in size; on growth rescue (activation): % of control where 0% means no effect
Details: TDP-43 expressing yeast growth rescue, BacTiter-Glo, 24 h; growth rescue (activation): at 46.1 µM (top of the series) unless noted
In short: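 Cell-based yeast growth screen: TDP-43 expression induced in galactose, inoculum OD600=0.02 after raffinose pregrowth to mid-log. Read-out BacTiter-Glo luminescence at 24 hr, 30 deg C; inhibition of toxicity seen as signal increase.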
Potency means the concentration at half of the fitted maximal effect; tags describe the fitted curve by direction and shape.

| Compound | Potency | growth rescue (activation) |
| --- | --- | --- |
| C=CCC(=O)OCCCCCCOc1ccc(C(=O)O)cc1 | inactive |  |
| COC(=O)c1ccccc1NC(=O)c1ccc(=O)n(Cc2cccc(C)c2)c1 | active: 31.6 µM |  |
| N#Cc1cccc(NC(=O)C2CCN(c3nc(-c4ccc(Cl)cc4)no3)CC2)c1 | inactive |  |
| Cc1ccc(S(=O)(=O)N(C(=O)c2ccco2)c2cc3sc(=O)oc3c3ccccc23)cc1 | inconclusive [activator, partial curve] |  |
| O=C(N/N=C/c1cn(-c2ccccc2)nc1-c1cccs1)c1ccccc1F | inactive |  |
| COC(=O)c1ccc2nc(-c3ccc(F)cc3)c(Cc3ccccc3)n2c1 | inconclusive [activator, single point] |  |
| Cc1cnc(C(=O)NNC(=O)c2ccc(Br)cc2)cn1 | inconclusive [activator, single point] |  |
| CNc1oc(-c2cccs2)nc1C#N | inactive |  |
| CSc1ccc(C#N)cc1NC(=O)c1ccc(Cl)cc1Cl | inconclusive [activator, partial curve] |  |
| Cc1ccc(COc2ccc(C(=O)NN)cc2)cc1 | active: 15.8 µM |  |
| COc1cc(OC)c(NC(=O)c2ccc3c(c2)N(Cc2ccc(C)cc2)CCS3)cc1Cl | inconclusive [activator, partial curve, poor fit] |  |
| COc1ccc(/C=C/c2nc(-c3ccccc3O)n[nH]2)cc1OC | inconclusive [activator, single point] |  |
| CCOC(=O)c1cccc(Nc2nc(C)cc(C)n2)c1 | inconclusive [activator, partial curve, poor fit] |  |
| CN(C)c1ccc(NC(=S)N2CCN(c3ncc(C(F)(F)F)cc3Cl)CC2)cc1 | inconclusive [activator, partial curve] |  |
| O=C(CSc1nnc(-c2ccco2)o1)c1ccccc1Cl | inconclusive [activator, single point] |  |
| COc1ccc(-c2cc3nc4c(c(N5CCC6(CC5)OCCO6)n3n2)CCC4)cc1 | inconclusive [activator, partial curve] |  |
| Fc1cccc(CSc2ccc(-c3ccco3)nn2)c1 | inconclusive [activator, full curve] |  |
| c1ccc(-c2nc(N3CCOCC3)sc2-c2ccccc2)cc1 | inconclusive [activator, single point] |  |
| Cc1ccc([N+](=O)[O-])cc1N=Nc1c(-c2ccc([N+](=O)[O-])cc2)[nH]n(C(N)=S)c1=O | inconclusive [activator, partial curve] |  |
| Cc1ccc(S(=O)(=O)NCCC(=O)OCC(=O)NCCc2ccccc2)cc1C | inconclusive [activator, partial curve] |  |
| Fc1ccc(-c2nn(-c3ccc(Cl)cc3)c3c2cnc2ccc(F)cc23)cc1 | inactive |  |
| COc1ccc(-n2c(=O)c3ccccc3n(Cc3ccccc3Cl)c2=O)cc1 | inactive |  |
| Cc1[nH]c2ccccc2c1Cc1nnc(SCc2ccccc2)o1 | inconclusive [activator, full curve] |  |
| Cc1nn(-c2cccc(Cl)c2)c2nc(-c3ccncc3)cc(C(=O)N3CCOCC3)c12 | inconclusive [activator, single point] |  |

| Compound | Potency | growth rescue (activation) |
| --- | --- | --- |
| Cc1noc(C)c1COc1cccc(C(=O)NCc2cccc(Cl)c2)c1 | inconclusive [activator, partial curve, poor fit] |  |
| N#Cc1cnn2c(-c3cccc([N+](=O)[O-])c3)ccnc12 | inconclusive [activator, partial curve, poor fit] |  |
| Cc1cccc(OCC(=O)Nc2ccc(NC(=O)c3ccco3)c(C)c2)c1 | inconclusive [activator, partial curve] |  |
| COc1ccc(S(=O)(=O)N/N=C\c2ccc([N+](=O)[O-])o2)c(OC)c1 | inconclusive [activator, full curve, poor fit] |  |
| COc1ccc([C@H]2CC(=O)C=C(c3ccc(NC(C)=O)cc3)C2)cc1OC | inactive |  |
| CC(=O)Nc1ccc(C(=O)Nc2ccc(S(=O)(=O)N3CCOCC3)cc2)cc1 | inactive |  |
| O=S(=O)(c1ccccc1)C1CON(Cc2ccccc2)C1c1ccccc1 (stereo unspecified) | inactive |  |
| CCOc1ccc(NC(=O)CN2CCN(CC(=O)Nc3ccc(F)cc3F)CC2)cc1 | inconclusive [activator, full curve, poor fit] |  |
| Cc1ccc(Nc2cc(C)nn2-c2nc(C)cc(=O)[nH]2)cc1 |  | inconclusive: -77.2% [activator] |
| Cc1cc(C)cc(C(=O)NCc2ccc3c(c2)OCO3)c1 | inconclusive [activator, partial curve] |  |
| O=C(CCNC(=O)c1ccco1)Nc1ccc(Cl)c(C(F)(F)F)c1 | inconclusive [activator, full curve] |  |
| COC(=O)c1ccc2nc(-c3ccc(Cl)cc3)c(Cc3cccc(F)c3)n2c1 | inconclusive [activator, single point] |  |
| CC(/C=C/c1ccccc1)=N\NC(N)=S | active: 12.6 µM |  |
| COc1ccc(C(=O)NCCn2ccc3ccccc32)cc1 | inconclusive [activator, partial curve] |  |
| O=C(CCCOC(=O)c1cccnc1Cl)c1ccc(Br)cc1 | inconclusive [activator, single point] |  |
| COc1ccc(OC)c(S(=O)(=O)NC(C)CCc2ccccc2)c1 (stereo unspecified) | inconclusive [activator, single point] |  |
| O=C(NC1CC1)c1sc2cc(F)ccc2c1Cl | inconclusive [activator, partial curve] |  |
| O=C(O)c1cc(N/N=C/c2ccc(OCc3ccccc3)cc2)ccc1Cl | inconclusive [activator, single point] |  |
| Cc1cc(O)ccc1-c1cnc2ccccc2n1 | inconclusive [activator, single point] |  |
| Cc1ccccc1N1CCN(C(=S)c2ccc([N+](=O)[O-])cc2)CC1 | inconclusive [activator, partial curve] |  |
| Cc1cccc(-c2nnc(SCc3ccccc3)o2)c1 | active: 11.2 µM |  |
| CCN1CCN(C(=O)c2ccc(Cl)c(S(=O)(=O)N3CCCCCC3)c2)CC1 | inactive |  |
| COc1ccc(/C(C)=C(\C#N)C(=O)OC(C)C)cc1OC | inconclusive [activator, partial curve] |  |
| COc1ccc(N2CCN(C(=O)c3cn(C)c(=O)c4c3c3ccccc3n4C)CC2)cc1 | inactive |  |

| Compound | Potency | growth rescue (activation) |
| --- | --- | --- |
| O=C(O)c1ccccc1C(=O)Nc1ccc(Nc2ccccc2)cc1 | inconclusive [activator, full curve, poor fit] |  |
| COc1ccc(OCCn2c(=O)sc3ccccc32)cc1 | active: 15.8 µM |  |
| CCc1ccccc1Nc1nn2c(=O)c3ccc(C(=O)NC4CCCCC4)cc3nc2s1 | inactive |  |
| COc1ccc(CNc2ccc(C(=O)O)cc2)cc1 | inconclusive [activator, full curve, poor fit] |  |
| NC12CCc3c(no[n+]3[O-])C1(O)CC(c1ccccc1)=[N+]2[O-] (stereo unspecified) | inactive |  |
| CC(C)(C)C1CCN2CCCC(c3ccccc3)(C1)C2=O (stereo unspecified) | inconclusive [activator, partial curve] |  |
| Cc1nn(-c2ccccc2)c2sc(C(=O)Nc3cccc(O)c3)cc12 | inconclusive [activator, partial curve] |  |
| COCCCN=C(c1ccco1)n1c(=S)nc(-c2ccco2)n(CCCOC)c1=S | inactive |  |
| O=C(OCn1nnc2ccccc2c1=O)c1ccc(O)cc1 |  | inactive: 22.2% [at 9.22 µM] |
| COc1cc(OC)c(Nc2c3c(nc4nc(-c5cccs5)nn24)CCCC3)cc1Cl | inconclusive [activator, partial curve] |  |
| O=C(C/C=N/OCc1ccc(Cl)cc1Cl)c1ccc(Cl)cc1 | inconclusive [activator, single point] |  |
| CCC(C)NC(=O)c1ccc2nc(Cc3ccccc3)oc2c1 (stereo unspecified) | inconclusive [activator, partial curve] |  |
| Cc1ccc(C(=O)CCNc2cccc(Br)c2)o1 | inconclusive [activator, single point] |  |
| CC(C)(C)NC(=O)C(C1CC1)n1c(=O)c(-c2ccccc2)nc2ccccc21 (stereo unspecified) | inconclusive [activator, partial curve] |  |
| CCOC(=O)CCS(=O)(=O)c1nc(-c2ccccc2)cc(C(F)(F)F)n1 | active: 15.8 µM |  |
| Nc1nnnn1NCc1cccc(OCc2ccccc2)c1 | inactive |  |
| CCOc1ccccc1N1CCN(S(=O)(=O)c2ccc(F)c(F)c2)CC1 | inconclusive [activator, single point] |  |
| Cc1ccc(Cl)cc1NC(=O)c1cc(S(=O)(=O)N2CCCCCC2)cn1C | inconclusive [activator, partial curve] |  |
| Cc1cc(Cl)ccc1C(=O)C1CCCN(C(=O)c2cccc(N3CCCC3=O)c2)C1 (stereo unspecified) | inconclusive [activator, single point] |  |
| COc1cc(C2CC(=O)Nc3c2c(C)nn3-c2nncc(-c3ccccc3)n2)cc(OC)c1OC (stereo unspecified) | inactive |  |
| O=C(COCc1cc(-c2ccc3c(c2)OCO3)on1)NCc1ccc(F)cc1 | inactive |  |
| COCc1cc(=O)[nH]c(Nc2nc(C)c3ccccc3n2)n1 | inconclusive [activator, partial curve] |  |
| CCOc1ccc2c(c1)[nH]c(=S)n2C | inconclusive [activator, single point] |  |
